PubChem BioAssay (EPA / NIEHS)
A number of entries come with more than one value. Only these are listed. Rule for the calls: active = hit-call score of the fitted dose curve at least 0.9, where 1 is the maximum; inactive = score below 0.9. An entry can have further records. Results that share an entry are repeats in other runs, samples, wells, individuals or studies. Signs of the kind (2×) stand for listed records that agree. Some compounds were tested as several samples or in several runs, with calls that do not always agree.

Experiments:
[1] = BSK_3C_TissueFactor: BioMAP Diversity Plus: 3C Assay for Tissue Factor Biomarker Activity (AID 2282997); details: BioMAP 3C HUVEC, tissue factor biomarker readout; actives raise or lower the signal
In short: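 Endothelial monolayers (human umbilical vein, primary) are dosed, incubated 24 h, and assayed for Tissue Factor by ELISA; DMSO serves as negative control for bidirectional fitting.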

[2] = BSK_3C_uPAR: BioMAP Diversity Plus: 3C Assay for Urokinase-type plasminogen activator receptor (uPAR) Biomarker Activity (AID 2282998); details: BioMAP 3C HUVEC, uPAR biomarker ELISA; actives raise or lower the signal
In short: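 HUVEC primary cells; 24 h post-dose; uPAR by ELISA; gain or loss of signal fitted bidirectionally vs DMSO baseline.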

[3] = BSK_3C_VCAM1: BioMAP Diversity Plus: 3C Assay for Vascular cell adhesion molecule 1 (VCAM1) Biomarker Activity (AID 2282999); details: BioMAP 3C HUVEC, VCAM1 ELISA, cytokine-stimulated; actives raise or lower the signal
In short: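 Human umbilical vein endothelial cells were dosed with compound for 24 h, after which cell-surface VCAM-1 was quantified by ELISA. Bidirectional curve fitting used DMSO as negative control and activity baseline.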

[4] = BSK_4H_Eotaxin3: BioMAP Diversity Plus: 4H Assay for Eotaxin 3 Biomarker Activity (AID 2283000); details: actives raise or lower the signal; primary human endothelial cells (HUVEC)
In short: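 ELISA quantitation of CCL26 (Eotaxin-3) protein from chemically dosed human vascular endothelial cells at 24 h; increases and decreases both scored relative to DMSO-treated baseline.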

[5] = read-out: Intercellular Adhesion Molecule 1 (ICAM1), ICAM1 (gene 3383); assay: BSK_3C_ICAM1: BioMAP Diversity Plus: 3C Assay for Intercellular Adhesion Molecule 1 (ICAM1) Biomarker Activity (AID 2283003); details: actives raise or lower the signal; primary human endothelial cells (HUVEC)
In short: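 Primary human umbilical vein endothelial cells in the BioMAP 3C system were exposed to chemicals for 24 h, then ICAM-1 was quantified by ELISA. Activity was fitted bidirectionally against the DMSO negative control baseline.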

[6] = read-out: E-selectin (Homo sapiens) (UniProt P16581); assay: BSK_3C_Eselectin: BioMAP Diversity Plus: 3C Assay for Eselectin Biomarker Activity (AID 2283015); details: actives raise or lower the signal; primary human endothelial cells (HUVEC)
UniProt P16581, sequence (P16581 whole entry, looked up): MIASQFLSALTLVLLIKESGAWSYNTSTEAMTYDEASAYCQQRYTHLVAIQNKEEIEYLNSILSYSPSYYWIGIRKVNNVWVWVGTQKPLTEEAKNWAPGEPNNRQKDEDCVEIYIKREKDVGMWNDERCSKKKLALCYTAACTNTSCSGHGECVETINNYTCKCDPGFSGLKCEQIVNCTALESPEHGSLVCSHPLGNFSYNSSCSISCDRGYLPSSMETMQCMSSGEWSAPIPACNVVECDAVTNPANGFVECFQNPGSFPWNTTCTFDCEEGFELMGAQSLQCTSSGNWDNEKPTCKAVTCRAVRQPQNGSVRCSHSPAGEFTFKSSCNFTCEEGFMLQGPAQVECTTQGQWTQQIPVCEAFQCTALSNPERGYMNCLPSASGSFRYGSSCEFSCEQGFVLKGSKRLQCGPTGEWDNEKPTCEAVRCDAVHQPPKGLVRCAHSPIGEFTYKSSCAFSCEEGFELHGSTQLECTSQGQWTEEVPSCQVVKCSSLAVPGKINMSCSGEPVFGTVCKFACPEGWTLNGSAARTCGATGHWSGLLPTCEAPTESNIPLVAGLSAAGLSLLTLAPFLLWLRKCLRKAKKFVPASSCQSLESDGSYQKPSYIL
In short: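 Endpoint derived by bidirectional fitting against DMSO vehicle; signal is ELISA-detected E-selectin from primary HUVEC at 24 h post-dosing, with parallel SRB staining (0.1% SRB, 560 nm) flagging cytotoxicity.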

[7] = read-out: Monocyte Chemoattractant Protein-1 (MCP1), CCL2 (gene 6347); assay: BSK_3C_MCP1: BioMAP Diversity Plus: 3C Assay for Monocyte Chemoattractant Protein-1 (MCP1) Biomarker Activity (AID 2283017); details: actives raise or lower the signal; primary human endothelial cells (HUVEC)
In short: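 Using human vascular primary endothelium, researchers measured MCP-1 by ELISA 24 h after treatment, with DMSO serving as negative control for bidirectional fitting.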

[8] = read-out: Monocyte Chemoattractant Protein-1 (MCP1), CCL2 (gene 6347); assay: BSK_4H_MCP1: BioMAP Diversity Plus: 4H Assay for Monocyte Chemoattractant Protein-1 (MCP1) Biomarker Activity (AID 2283018); details: actives raise or lower the signal; primary human endothelial cells (HUVEC)
In short: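 Human umbilical vein endothelial cells (4H system) dosed with chemical; MCP-1 measured by ELISA 24 h after dosing. Bidirectional curve fitting against DMSO negative control as baseline; parallel SRB total-protein staining tracks overt cytotoxicity.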

[9] = read-out: Human Leukocyte Antigen - DR isotype (HLADR), HLA-DRA (gene 3122); assay: BSK_3C_HLADR: BioMAP Diversity Plus: 3C Assay for Human Leukocyte Antigen - DR isotype (HLADR) Biomarker Activity (AID 2283019); details: actives raise or lower the signal; primary human endothelial cells (HUVEC)
In short: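 Compound added to primary HUVEC cultures, 24 h incubation, then HLA-DR determined by ELISA; endpoint derived by bidirectional fitting relative to DMSO negative control.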

[10] = read-out: Interleukin-8 (IL8), CXCL8 (gene 3576); assay: BSK_3C_IL8: BioMAP Diversity Plus: 3C Assay for Interleukin-8 (IL8) Biomarker Activity (AID 2283020); details: actives raise or lower the signal; primary human endothelial cells (HUVEC)
In short: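 Primary human umbilical vein endothelial cells (3C system) were exposed to test chemical for 24 h, then IL-8 was quantified by ELISA. Responses were fitted bidirectionally against DMSO vehicle as baseline.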

[11] = read-out: Monokine induced gamma interferon (MIG), CXCL9 (gene 4283); assay: BSK_3C_MIG: BioMAP Diversity Plus: 3C Assay for Monokine induced gamma interferon (MIG) Biomarker Activity (AID 2283021); details: actives raise or lower the signal; primary human endothelial cells (HUVEC);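 note: MIG protein level measured by immunoassay in the treated endothelial cultures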
In short: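 Primary human umbilical vein endothelial cells in the 3C system were exposed to chemical for 24 h, after which MIG was quantified by ELISA. Activity was fitted bidirectionally against DMSO as negative control and baseline.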

[12] = BSK_3C_SRB: Viability Assessment in the BioMAP Diversity Plus: 3C Assay (AID 2283023); details: primary human endothelial cells (HUVEC);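 note: cells read 24 h after compound dosing; fitted both ways against DMSO so a hit may be signal rise or drop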
In short: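 Overt cytotoxicity is gauged in parallel confluent HUVEC cultures by SRB total-protein staining at the time of biomarker measurement, 24 h after dosing. Gain or loss of signal is fitted versus DMSO.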

[13] = read-out: Matrix Metallopeptidase 1 (MMP1), MMP1 (gene 4312); assay: BSK_BE3C_MMP1: BioMAP Diversity Plus: BE3C Assay for Matrix Metallopeptidase 1 (MMP1) Biomarker Activity (AID 2283024); details: actives raise or lower the signal; primary human bronchial epithelial cells
In short: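 Primary human bronchial epithelial cells were dosed with test chemicals, and MMP1 levels were measured by ELISA 24 h later. Data were fitted bidirectionally against DMSO as the negative control and activity baseline.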

[14] = BSK_4H_SRB: Viability Assessment in the BioMAP Diversity Plus: 4H Assay (AID 2283027); details: primary human endothelial cells (HUVEC);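 note: cells exposed to compound for 24 h before staining; curves fitted both ways versus DMSO so AC50 may be loss or gain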
In short: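 Human umbilical vein endothelial cells were dosed with chemical and, after 24 h, fixed with 10% TCA, stained with 0.1% sulforhodamine B, and read at 560 nm to give total protein as a cytotoxicity measure. Bidirectional fitting relative to DMSO control.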

[15] = read-out: Urokinase-type plasminogen activator receptor (uPAR), PLAUR (gene 5329); assay: BSK_4H_uPAR: BioMAP Diversity Plus: 4H Assay for Urokinase-type plasminogen activator receptor (uPAR) Biomarker Activity (AID 2283030); details: actives raise or lower the signal; primary human endothelial cells (HUVEC)
In short: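 Endpoint derived via bidirectional curve fitting against DMSO baseline; readout was ELISA detection of uPAR on umbilical vein endothelial cells at 24 h post-treatment, with SRB-stained parallel cultures assessing cytotoxicity.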

[16] = read-out: Human Leukocyte Antigen - DR isotype (HLADR), HLA-DRA (gene 3122); assay: BSK_BE3C_HLADR: BioMAP Diversity Plus: BE3C Assay for Human Leukocyte Antigen - DR isotype (HLADR) Biomarker Activity (AID 2283032); details: actives raise or lower the signal; primary human bronchial epithelial cells
In short: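 Human primary bronchial epithelial cells in the BE3C system were exposed to chemicals for 24 h, after which HLA-DR levels were quantified by ELISA. Activity was fitted bidirectionally, gain or loss of signal, against DMSO as negative control and baseline.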

[17] = read-out: Vascular cell adhesion molecule 1 (VCAM1), VCAM1 (gene 7412); assay: BSK_4H_VCAM1: BioMAP Diversity Plus: 4H Assay for Vascular cell adhesion molecule 1 (VCAM1) Biomarker Activity (AID 2283033); details: actives raise or lower the signal; primary human endothelial cells (HUVEC)
In short: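 Primary human umbilical vein endothelial cells were exposed to chemicals for 24 h, after which VCAM-1 was quantified by ELISA. Responses were fitted bidirectionally against DMSO as negative control and activity baseline.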

[18] = read-out: Tissue plasminogen activator (tPA), PLAT (gene 5327); assay: BSK_BE3C_tPA: BioMAP Diversity Plus: BE3C Assay for Tissue plasminogen activator (tPA) Biomarker Activity (AID 2283041); details: actives raise or lower the signal; primary human bronchial epithelial cells
In short: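 Human primary bronchial epithelial cells were dosed with chemical and tPA biomarker levels measured by ELISA 24 hours later. Activity was fitted bidirectionally against DMSO as negative control and baseline.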

[19] = read-out: Human Leukocyte Antigen - DR isotype (HLADR), HLA-DRA (gene 3122); assay: BSK_CASM3C_HLADR: BioMAP Diversity Plus: CASM3C Assay for Human Leukocyte Antigen - DR isotype (HLADR) Biomarker Activity (AID 2283043); details: actives raise or lower the signal; primary human coronary artery smooth muscle cells;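 note: cell-surface HLA-DR protein level quantified by ELISA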
CD40, CD40 (gene 958) = assay: BSK_LPS_CD40: BioMAP Diversity Plus: LPS Assay for CD40 Biomarker Activity (AID 2283076); details: actives raise or lower the signal; primary human HUVEC with PBMC
In short: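 Using a multiplexed primary human co-culture (umbilical vein endothelium plus PBMC), CD40 was read by ELISA 24 h after dosing, with cytotoxicity tracked by sulforhodamine B staining of parallel cultures and activity fitted bidirectionally versus DMSO.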

[20] = read-out: E-selectin (Homo sapiens) (UniProt P16581); assay: BSK_LPS_Eselectin: BioMAP Diversity Plus: LPS Assay for Eselectin Biomarker Activity (AID 2283077); details: actives raise or lower the signal; primary human HUVEC with PBMC
In short: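 Dose chemical onto LPS-driven HUVEC/PBMC co-culture; after 24 h, run ELISA for E-selectin; fit up- and down-going responses relative to DMSO control.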

[21] = read-out: Interleukin-8 (IL8), CXCL8 (gene 3576); assay: BSK_LPS_IL8: BioMAP Diversity Plus: LPS Assay for Interleukin-8 (IL8) Biomarker Activity (AID 2283078); details: actives raise or lower the signal; primary human HUVEC with PBMC
In short: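 In this LPS system, chemical-treated human umbilical vein endothelium/PBMC co-cultures were harvested at 24 h for IL-8 ELISA.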

[22] = BSK_LPS_SRB: Viability Assessment in the BioMAP Diversity Plus: LPS Assay (AID 2283079); details: primary human HUVEC with PBMC;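 note: measured one day after compound addition; fitted in both directions against DMSO so loss or gain of signal counts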
In short: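 Cytotoxicity endpoint in human endothelial–PBMC co-culture: 24 h exposure, then SRB (0.1%) staining, 560 nm read.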

Q: Which results are given for `FC(F)(I)C(F)(F)C(F)(F)C(F)(F)C(F)(F)C(F)(F)I`?
A: AC50 [1]: active: 14.6, 17.1, 14.7, 38.1, 44.1 µM [separate samples]; AC50 [2]: active: 11.1, 10.8, 11.4, 55.1, 48.3 µM [separate samples]; AC50 [3]: active: 17.4, 16.4, 11, 43, 48.4 µM [separate samples]; AC50 [4]: active: 11.7, 16.6, 15.4, 44.7, 43.2 µM [separate samples]; AC50 [5]: active: 18.1, 15.9, 11.9, 45, 51.3 µM [separate samples]; AC50 [6]: active: 14.2, 10.5, 10.1, 23.9, 51.9 µM [separate samples]; AC50 [7]: active: 9.61, 11.7, 12.3, 23.8, 43.8 µM [separate samples]; AC50 [8]: active: 11.7, 7.89, 10.9, 36.9, 21.9 µM [separate samples]; AC50 [9]: active: 17.5, 12.4, 10.7, 38.7, 49.9 µM [separate samples]; AC50 [10]: active: 10.7, 13.2, 12.1, 27.1, 46.9 µM [separate samples]; AC50 [11]: active: 15.2, 17.1, 11.5, 49.8, 53.4 µM [separate samples]; AC50 [12]: active: 9.92, 10.2, 11.5, 43.2, 25.7 µM [separate samples]; AC50 [13]: active: 50.8, 54.5, 53.7 (2×), 14.1 µM [separate samples]; AC50 [14]: active: 12.3, 12.6, 11.3, 49.7, 44 µM [separate samples]; AC50 [15]: active: 11.4, 11.2, 12, 54.9, 24.7 µM [separate samples]; AC50 [16]: active: 20 (2×), 14.8, 33.3, 45.3 µM [separate samples]; AC50 [17]: active: 12.4, 12.3, 9.69, 36.2, 23.6 µM [separate samples]; AC50 [18]: active: 10.7, 14.4, 39.4, 32.4 µM [separate samples]; AC50 [19]: active: 19.1, 8.33, 16.1, 23.6, 36 µM [separate samples]; AC50 (CD40, CD40 (gene 958)): active: 14.3, 17.7, 18.5, 54.2, 58.8 µM [separate samples]; AC50 [20]: active: 10.9, 22.1, 21.6, 52.3, 40.8 µM [separate samples]; AC50 [21]: active: 14.5, 16, 18.8, 23.1, 46.6 µM [separate samples]; AC50 [22]: active: 12, 21, 18.1, 58.6, 49.9 µM [separate samples]
